Measured values as given in the supplement of paper PMC12230231.
± gives the standard deviation of the averaged measurements. Restriction of a single-cycle SIVsab GFP reporter by TRIM5α v1-loop variants in CRFK cells. Human variants: read share among cells still uninfected after two challenges over input, higher = gained restriction. Rhesus variants: share among infected cells over input, higher = lost restriction. Reporter dose not given per row. No active / inactive call per row; the paper calls a change when both replicates lie above its controls (mean + 2 SD of stop or wild-type variants, or the top frameshift score). Residues outside the varied loop are taken from Swiss-Prot. The paper reads the human single-substitution scores as noise; they and the rhesus combinations repeat poorly (rank correlation 0.3 to 0.4), indel scores repeat only for the top variants, rhesus substitutions well (0.9).

These sequences were tested on SIVsab (simian immunodeficiency virus of sabaeus monkeys), single-cycle GFP reporter, in CRFK cells (assay: enrichment among uninfected cells over input (fold); higher = stronger restriction). Conditions: library: human / rhesus combinations.
Description: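 Pools of CRFK cells expressing variants of the TRIM5α v1 loop were challenged with the single-cycle reporter, sorted by GFP and sequenced; mean of two replicates.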
For “MASGILVNVKEEVTCPICLELLTQPLSLDCGHSFCQACLTANHKKSMLDKGESSCPVCRISYQPENIRPNRHVANIVEKLREVKLSPEGQKVDHCARHGEKLLLFCQEDGKVICWLCERSQEHRGHHTFLTEEVAREYQVKLQAALEMLRQKQQEAEELEADIREEKASWKTQIQYDKTNVLADFEQLRDILDWEESNELQNLEKEEEDILKSLTNSETEMVQQTQSLRELISDLEHRLQGSVMELLQGVDGVIKRTENVTLKKPETFPKNQRRVFRAPDLKGMLEVFRELTDVRRYWVDVTVAPNNISCAVISEDKRQVSSPKPQIIYGAPGTLFQSFVNFNYCTGILGSQSITSGKHYWEVDVSKKTAWILGVCAGFQPDAMCNIEKNENYQPKYGYWVIGLEEGVKCSAFQDSSFHTPSVPFIVPLSVIICPDRVGVFLDYEACTVSFFNITNHGFLIYKFSHCSFSQPVFPYLNPRKCGVPMTLCSPSS [human TRIM5α, 330-340 = GAPGTLFQSFV]”, the enrichment was 0.00299 ± 0.0004.
“MASGILVNVKEEVTCPICLELLTQPLSLDCGHSFCQACLTANHKKSMLDKGESSCPVCRISYQPENIRPNRHVANIVEKLREVKLSPEGQKVDHCARHGEKLLLFCQEDGKVICWLCERSQEHRGHHTFLTEEVAREYQVKLQAALEMLRQKQQEAEELEADIREEKASWKTQIQYDKTNVLADFEQLRDILDWEESNELQNLEKEEEDILKSLTNSETEMVQQTQSLRELISDLEHRLQGSVMELLQGVDGVIKRTENVTLKKPETFPKNQRRVFRAPDLKGMLEVFRELTDVRRYWVDVTVAPNNISCAVISEDKRQVSSPKPQIIYGAPGTLFTFQTFTNFNYCTGILGSQSITSGKHYWEVDVSKKTAWILGVCAGFQPDAMCNIEKNENYQPKYGYWVIGLEEGVKCSAFQDSSFHTPSVPFIVPLSVIICPDRVGVFLDYEACTVSFFNITNHGFLIYKFSHCSFSQPVFPYLNPRKCGVPMTLCSPSS [human TRIM5α, 330-340 = GAPGTLFTFQTFT]” showed an enrichment of 0.0745 ± 0.0049.
Work on “MASGILVNVKEEVTCPICLELLTQPLSLDCGHSFCQACLTANHKKSMLDKGESSCPVCRISYQPENIRPNRHVANIVEKLREVKLSPEGQKVDHCARHGEKLLLFCQEDGKVICWLCERSQEHRGHHTFLTEEVAREYQVKLQAALEMLRQKQQEAEELEADIREEKASWKTQIQYDKTNVLADFEQLRDILDWEESNELQNLEKEEEDILKSLTNSETEMVQQTQSLRELISDLEHRLQGSVMELLQGVDGVIKRTENVTLKKPETFPKNQRRVFRAPDLKGMLEVFRELTDVRRYWVDVTVAPNNISCAVISEDKRQVSSPKPQIIYGARGTRYTFQTLVNFNYCTGILGSQSITSGKHYWEVDVSKKTAWILGVCAGFQPDAMCNIEKNENYQPKYGYWVIGLEEGVKCSAFQDSSFHTPSVPFIVPLSVIICPDRVGVFLDYEACTVSFFNITNHGFLIYKFSHCSFSQPVFPYLNPRKCGVPMTLCSPSS [human TRIM5α, 330-340 = GARGTRYTFQTLV]” yielded an enrichment of 0.129 ± 0.096.

Same assay, conditions: library: insertions and deletions
Work on “MASGILVNVKEEVTCPICLELLTQPLSLDCGHSFCQACLTANHKKSMLDKGESSCPVCRISYQPENIRPNRHVANIVEKLREVKLSPEGQKVDHCARHGEKLLLFCQEDGKVICWLCERSQEHRGHHTFLTEEVAREYQVKLQAALEMLRQKQQEAEELEADIREEKASWKTQIQYDKTNVLADFEQLRDILDWEESNELQNLEKEEEDILKSLTNSETEMVQQTQSLRELISDLEHRLQGSVMELLQGVDGVIKRTENVTLKKPETFPKNQRRVFRAPDLKGMLEVFRELTDVRRYWVDVTVAPNNISCAVISEDKRQVSSPKPPQIIYGARGTRYQTFVNFNYCTGILGSQSITSGKHYWEVDVSKKTAWILGVCAGFQPDAMCNIEKNENYQPKYGYWVIGLEEGVKCSAFQDSSFHTPSVPFIVPLSVIICPDRVGVFLDYEACTVSFFNITNHGFLIYKFSHCSFSQPVFPYLNPRKCGVPMTLCSPSS [human TRIM5α, 1-codon duplication at 325]” yielded an enrichment of 2.04 ± 2.7.
Sequence “MASGILVNVKEEVTCPICLELLTQPLSLDCGHSFCQACLTANHKKSMLDKGESSCPVCRISYQPENIRPNRHVANIVEKLREVKLSPEGQKVDHCARHGEKLLLFCQEDGKVICWLCERSQEHRGHHTFLTEEVAREYQVKLQAALEMLRQKQQEAEELEADIREEKASWKTQIQYDKTNVLADFEQLRDILDWEESNELQNLEKEEEDILKSLTNSETEMVQQTQSLRELISDLEHRLQGSVMELLQGVDGVIKRTENVTLKKPETFPKNQRRVFRAPDLKGMLEVFRELTDVRRYWVDVTVAPNNISCAVISEDKRQVSSPKPQIIYGAVNFNYCTGILGSQSITSGKHYWEVDVSKKTAWILGVCAGFQPDAMCNIEKNENYQPKYGYWVIGLEEGVKCSAFQDSSFHTPSVPFIVPLSVIICPDRVGVFLDYEACTVSFFNITNHGFLIYKFSHCSFSQPVFPYLNPRKCGVPMTLCSPSS [human TRIM5α, 8-codon deletion at 332]” has an enrichment of 0.873 ± 0.31.
With “MASGILVNVKEEVTCPICLELLTQPLSLDCGHSFCQACLTANHKKSMLDKGESSCPVCRISYQPENIRPNRHVANIVEKLREVKLSPEGQKVDHCARHGEKLLLFCQEDGKVICWLCERSQEHRGHHTFLTEEVAREYQVKLQAALEMLRQKQQEAEELEADIREEKASWKTQIQYDKTNVLADFEQLRDILDWEESNELQNLEKEEEDILKSLTNSETEMVQQTQSLRELISDLEHRLQGSVMELLQGVDGVIKRTENVTLKKPETFPKNQRRVFRAPDLKGMLEVFRELTDVRRYWVDVTVAPNNISCAVISEDKRQVSSPKPQIIYGARGTYQTFVNFNYCTGILGSQSITSGKHYWEVDVSKKTAWILGVCAGFQPDAMCNIEKNENYQPKYGYWVIGLEEGVKCSAFQDSSFHTPSVPFIVPLSVIICPDRVGVFLDYEACTVSFFNITNHGFLIYKFSHCSFSQPVFPYLNPRKCGVPMTLCSPSS [human TRIM5α, 1-codon deletion at 335]” the enrichment was 0.718 ± 0.14.
“MASGILVNVKEEVTCPICLELLTQPLSLDCGHSFCQACLTANHKKSMLDKGESSCPVCRISYQPENIRPNRHVANIVEKLREVKLSPEGQKVDHCARHGEKLLLFCQEDGKVICWLCERSQEHRGHHTFLTEEVAREYQVKLQAALEMLRQKQQEAEELEADIREEKASWKTQIQYDKTNVLADFEQLRDILDWEESNELQNLEKEEEDILKSLTNSETEMVQQTQSLRELISDLEHRLQGSVMELLQGVDGVIKRTENVTLKKPETFPKNQRRVFRAPDLKGMLEVFRELTDVRRYWVDVTVAPNNISCAVISEDKRQVSSPKPQIIYGARGTRYQTFVFVNFNYCTGILGSQSITSGKHYWEVDVSKKTAWILGVCAGFQPDAMCNIEKNENYQPKYGYWVIGLEEGVKCSAFQDSSFHTPSVPFIVPLSVIICPDRVGVFLDYEACTVSFFNITNHGFLIYKFSHCSFSQPVFPYLNPRKCGVPMTLCSPSS [human TRIM5α, 2-codon duplication at 339]” showed an enrichment of 0.3511 ± 0.0014.
Work on “MASGILVNVKEEVTCPICLELLTQPLSLDCGHSFCQACLTANHKKSMLDKGESSCPVCRISYQPENIRPNRHVANIVEKLREVKLSPEGQKVDHCARHGEKLLLFCQEDGKVICWLCERSQEHRGHHTFLTEEVAREYQVKLQAALEMLRQKQQEAEELEADIREEKASWKTQIQYDKTNVLADFEQLRDILDWEESNELQNLEKEEEDILKSLTNSETEMVQQTQSLRELISDLEHRLQGSVMELLQGVDGVIKRTENVTLKKPETFPKNQRRVFRAPDLKGMLEVFRELTDVRRYWVDVTVAPNNISCAVISEDKRQVSSPKPQIIYGARGGTRYQTFVNFNYCTGILGSQSITSGKHYWEVDVSKKTAWILGVCAGFQPDAMCNIEKNENYQPKYGYWVIGLEEGVKCSAFQDSSFHTPSVPFIVPLSVIICPDRVGVFLDYEACTVSFFNITNHGFLIYKFSHCSFSQPVFPYLNPRKCGVPMTLCSPSS [human TRIM5α, 1-codon duplication at 333]” yielded an enrichment of 0.609 ± 0.52.
